Here are results for 24 compounds from publication PMC4336329 (PLoS ONE, 2015).

About 2,200 (0.71%) of roughly 310,000 compounds showed an effect of 50% or more. The effect is printed as a negative number. The list shows a part of the results.

Sequence of human ether-à-go-go-related gene (hERG) potassium channel (Q12809 whole entry, looked up): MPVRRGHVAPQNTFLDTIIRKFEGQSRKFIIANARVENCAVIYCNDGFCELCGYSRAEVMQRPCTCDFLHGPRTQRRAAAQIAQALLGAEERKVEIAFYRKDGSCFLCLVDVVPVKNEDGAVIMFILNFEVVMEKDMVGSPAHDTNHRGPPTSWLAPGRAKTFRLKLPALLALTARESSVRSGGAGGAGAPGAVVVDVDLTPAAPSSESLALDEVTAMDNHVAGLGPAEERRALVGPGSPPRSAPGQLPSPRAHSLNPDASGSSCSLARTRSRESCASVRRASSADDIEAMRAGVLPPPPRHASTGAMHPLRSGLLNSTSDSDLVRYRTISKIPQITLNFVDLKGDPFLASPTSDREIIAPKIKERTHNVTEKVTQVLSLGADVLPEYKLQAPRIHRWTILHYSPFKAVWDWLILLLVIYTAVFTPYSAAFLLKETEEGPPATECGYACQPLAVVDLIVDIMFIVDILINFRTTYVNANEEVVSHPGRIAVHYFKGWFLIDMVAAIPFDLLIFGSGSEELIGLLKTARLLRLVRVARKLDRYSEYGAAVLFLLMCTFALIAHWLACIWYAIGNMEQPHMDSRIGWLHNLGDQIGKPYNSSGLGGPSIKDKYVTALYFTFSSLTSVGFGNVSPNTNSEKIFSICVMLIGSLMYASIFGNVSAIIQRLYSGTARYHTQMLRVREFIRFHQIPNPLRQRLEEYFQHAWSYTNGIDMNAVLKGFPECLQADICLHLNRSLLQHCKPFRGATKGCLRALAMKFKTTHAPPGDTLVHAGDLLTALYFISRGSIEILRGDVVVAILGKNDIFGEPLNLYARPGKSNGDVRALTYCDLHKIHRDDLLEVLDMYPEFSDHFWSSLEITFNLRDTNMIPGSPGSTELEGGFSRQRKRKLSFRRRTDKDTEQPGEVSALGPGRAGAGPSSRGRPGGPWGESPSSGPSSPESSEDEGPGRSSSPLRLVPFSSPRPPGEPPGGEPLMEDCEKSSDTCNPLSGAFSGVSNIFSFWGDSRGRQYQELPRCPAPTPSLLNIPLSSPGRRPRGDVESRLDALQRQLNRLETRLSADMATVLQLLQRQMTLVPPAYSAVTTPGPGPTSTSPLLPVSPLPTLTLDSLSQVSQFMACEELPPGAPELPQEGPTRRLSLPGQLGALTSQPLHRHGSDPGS

This test addresses human ether-à-go-go-related gene (hERG) potassium channel (human, UniProt Q12809). The experiment in a line: primary screen, population patch clamp on CHO cells stably expressing hERG.
For `Cc1ccnc(NS(=O)(=O)c2ccc(NC(=O)c3ccc([N+](=O)[O-])s3)cc2)n1`, the “hERG current change (%, negative = inhibition) at 1uM” value turned out to be 6.9%. The same measure for `COC(=O)c1sccc1NC(=O)CSc1ccccc1NS(=O)(=O)c1ccccc1Cl`: 12.3%. Take `COc1ccc2c(C(F)(F)F)cc(=O)oc2c1C`: the “hERG current change (%, negative = inhibition) at 1uM” value turned out to be 5.28%. The same measure for `CN(C)c1ncnc2c1ncn2C1OC(CO)C(O)C1O` (stereo not drawn): 11.2%; for `CN(C)CCc1nc2ccccc2c(=O)n1-c1ccccc1.Cl`: 8.16%; for `Cc1ccc2nc(C)c(C(=O)N/N=C/c3cccs3)cc2c1`: 3.53%. The same measure for `COc1cccc(C(=O)Nc2ccccc2NC(=O)c2cccc(OC)c2)c1`: 12.5%; for `COc1cc2nc(N(CCCN(C)C)C(=O)c3ccc(S(=O)(=O)N(C)C4CCCCC4)cc3)sc2cc1OC.Cl`: -4.3%; for `Cc1ccc(S(=O)(=O)NCCC(=O)NCC(c2cccs2)N(C)C)cc1C` (stereo not drawn): 10.3%. The same measure for `O=C(/C(=C(/[O-])c1ccccc1)[n+]1ccccc1)c1ccc([N+](=O)[O-])cc1`: 9.99%. Take `COC(=O)c1c(C(=O)OC)c2n(c1C)CCS2`: the “hERG current change (%, negative = inhibition) at 1uM” value came out at 5.12%. `C/C(Cn1cnc([N+](=O)[O-])n1)=N\NC(=O)c1ccccc1`: the “hERG current change (%, negative = inhibition) at 1uM” value turned out to be 18.4%. Regarding `O=C(NCc1cccnc1)c1cnn2ccccc12`, the “hERG current change (%, negative = inhibition) at 1uM” value stood at 12.6%.

As for `O=C(CN1CCN(C(=O)c2ccco2)CC1)NCc1ccc(Cl)cc1`, the “hERG current change (%, negative = inhibition) at 1uM” value was -35.1%. The same measure for `COc1ccc(-n2nc(C(=O)N3CCC(C#N)CC3)c3c4ccccc4n(C)c3c2=O)cc1`: -7.69%. The same measure for `CCOc1ccc(C2c3[nH]c4ccccc4c3C[C@H]3C(=O)N(C4CC4)CC(=O)N23)cc1OC` (stereo partly drawn): 5.86%; for `O=C1COc2ccc(C(=O)COC(=O)c3ccco3)cc2N1`: 8.78%; for `COc1cccc(=O)c2c(C)n(-c3ccc(C(=O)O)cc3)c(C)c12`: 8.3%. As for `Cc1cc(=O)oc2cc(OCCSCCN3CCCCC3)ccc12`, the “hERG current change (%, negative = inhibition) at 1uM” value was found to be 10%. In the case of `CSc1nc2sc3c(c2c(=O)[nH]1)CCc1ccccc1-3`, the “hERG current change (%, negative = inhibition) at 1uM” value came to 0.433%. For the compound `COc1ccc(CCNC(=O)C(C)Sc2ccc(C)cc2)cc1OC` (stereo not drawn), the “hERG current change (%, negative = inhibition) at 1uM” value worked out at 5.64%. On to `CC1CCCN(C2=C(Cl)C(=O)N(c3cccc(Cl)c3)C2=O)C1` (stereo not drawn), for which the “hERG current change (%, negative = inhibition) at 1uM” value was 4.58%. The same measure for `COC(=O)c1ccc(NC(=O)CSCc2ccc(C)cc2)cc1`: 3.01%; for `N#C/C(=C/c1ccc(N2CCOCC2)c([N+](=O)[O-])c1)C(N)=O`: -4.14%.
